This is one part of the list. Values were computed here from the reads of four pooled replicates and scatter widely.

This assay has as its target T1, Pho4 (S. cerevisiae) (UniProt P07270).
T1 sequence: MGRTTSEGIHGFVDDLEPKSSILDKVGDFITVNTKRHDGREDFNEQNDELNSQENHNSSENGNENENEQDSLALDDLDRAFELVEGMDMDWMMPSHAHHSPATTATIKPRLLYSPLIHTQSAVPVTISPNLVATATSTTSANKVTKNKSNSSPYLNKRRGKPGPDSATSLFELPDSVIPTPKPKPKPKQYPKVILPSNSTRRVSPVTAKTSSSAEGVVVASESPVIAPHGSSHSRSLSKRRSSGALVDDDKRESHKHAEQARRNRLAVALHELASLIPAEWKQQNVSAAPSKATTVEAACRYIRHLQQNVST
Briefly: relative binding free energy (BET-seq); higher = weaker binding. As to conditions: reference: library average.
Turning to TTGAACACGTGGATGT, the “relative binding free energy” value was determined as 0.04 kcal/mol. With GGTTTCACGTGCAAGA the figure was 0.44 kcal/mol; with GCAGTCACGTGATGGG, 0.15 kcal/mol; with ATTCACACGTGAGTTG, 0.35 kcal/mol. In the case of TAGGTCACGTGGTTAT, the “relative binding free energy” value came to 0.09 kcal/mol. With AAGTTCACGTGTATAG the figure was 0.16 kcal/mol; with AAGTTCACGTGGGTAT, 0.13 kcal/mol.

Take AAGAGCACGTGTGTCG: the “relative binding free energy” value was -0.1 kcal/mol.

For the sequence ATATACACGTGAGGAT, the “relative binding free energy” value is 0.36 kcal/mol. With GATGCCACGTGTTTGG, the “relative binding free energy” value is -0.01 kcal/mol.

For the sequence AATTTCACGTGGGTTG, the “relative binding free energy” value came out at 0.16 kcal/mol.

Consider TGTGACACGTGAGACT, for which the “relative binding free energy” value is 0.26 kcal/mol. Under CTGGGCACGTGGCGCG stands -0.19 kcal/mol; under GGTAGCACGTGATTAG, 0.2 kcal/mol; under TTCGGCACGTGGTGGG, -0.09 kcal/mol. Under CGGCTCACGTGTTTAG stands 0.31 kcal/mol; under CTAAGCACGTGGTTGG, -0.23 kcal/mol; under AAACGCACGTGATGAG, 0.21 kcal/mol.

As for TAGTTCACGTGCGGAC, the “relative binding free energy” value stood at 0.38 kcal/mol. Consider CGTAGCACGTGGGGCG, for which the “relative binding free energy” value is -0.2 kcal/mol.

Regarding TAGTACACGTGAATTT, the “relative binding free energy” value turned out to be 0.23 kcal/mol. Under TAAAACACGTGGGCGT stands -0.04 kcal/mol; under AAACGCACGTGTAGTG, 0.01 kcal/mol. Take TGTTACACGTGGTAGT: the “relative binding free energy” value was 0.02 kcal/mol. Under TGGGACACGTGTGCGC stands 0.06 kcal/mol; under GGTGACACGTGGAAGG, 0.08 kcal/mol. Take GTATGCACGTGAGGCA: the “relative binding free energy” value is 0.24 kcal/mol.

For the sequence AGTAGCACGTGGGGCA, the “relative binding free energy” value is -0.24 kcal/mol.

In the case of CAGGTCACGTGTCGGT, the “relative binding free energy” value is 0.16 kcal/mol.

On to GGATTCACGTGGAGAC, for which the “relative binding free energy” value is 0.38 kcal/mol. As for ATCTGCACGTGAGGAT, the “relative binding free energy” value was 0.21 kcal/mol. Turning to TCGTGCACGTGTATTT, the “relative binding free energy” value turned out to be 0.05 kcal/mol. Take GTGATCACGTGGAGCT: the “relative binding free energy” value was determined as 0.08 kcal/mol. With GGGACCACGTGTGGAT the figure was 0.1 kcal/mol; with GGGGACACGTGGGATC, 0.07 kcal/mol; with ATTCTCACGTGTATTG, 0 kcal/mol.

TGAGACACGTGAGATT: the “relative binding free energy” value amounted to 0.22 kcal/mol. Take ATTTACACGTGCTTGA: the “relative binding free energy” value was 0.05 kcal/mol. With GTGGACACGTGGGGAG the figure was 0.01 kcal/mol; with TGTTGCACGTGTACTA, -0.09 kcal/mol; with TGGAGCACGTGACTTT, 0.1 kcal/mol. With TGTTGCACGTGCTGTC the figure was -0.01 kcal/mol; with TAAGGCACGTGTGGAG, -0.03 kcal/mol. With GGTCGCACGTGGGGTA the figure was -0.21 kcal/mol.

In the case of TGTTTCACGTGAGTCT, the “relative binding free energy” value is 0.36 kcal/mol. With GCTGTCACGTGATTTG the figure was 0.27 kcal/mol.

With GTGGGCACGTGAAAGA, the “relative binding free energy” value came to 0.28 kcal/mol. With AGGGACACGTGGCAAG the figure was -0.1 kcal/mol; with AAAAACACGTGAAGGT, 0.43 kcal/mol; with ATGCTCACGTGACGGT, 0.26 kcal/mol.

As for GGTTACACGTGTAGGT, the “relative binding free energy” value was 0.19 kcal/mol.

On to GTGGACACGTGTATAG, for which the “relative binding free energy” value was 0.14 kcal/mol. On to TATGACACGTGTTTCG, for which the “relative binding free energy” value worked out at 0.08 kcal/mol.

Regarding TGGATCACGTGTAAGT, the “relative binding free energy” value is 0.27 kcal/mol. Under ATAAGCACGTGTGGTC stands -0.11 kcal/mol; under TGGGGCACGTGCGCTG, -0.21 kcal/mol; under TGTGTCACGTGTTGCC, 0.1 kcal/mol.

Turning to ATGTGCACGTGTCAGT, the “relative binding free energy” value was -0.02 kcal/mol. Under TGTGCCACGTGTTGCG stands -0.03 kcal/mol. Take GGGGTCACGTGTGTAA: the “relative binding free energy” value is 0.13 kcal/mol. With GGGTTCACGTGTCGAT the figure was 0.31 kcal/mol. With AGATACACGTGTGGTG the figure was 0.12 kcal/mol; with TGTACCACGTGAGGGT, 0.07 kcal/mol; with TTCTTCACGTGATTGT, 0.22 kcal/mol. For the sequence TATGACACGTGGGCGG, the “relative binding free energy” value is -0.08 kcal/mol. Regarding ATTAGCACGTGTCGTT, the “relative binding free energy” value is -0.11 kcal/mol. With GGGGCCACGTGCGTGG, the “relative binding free energy” value is -0.2 kcal/mol. Take CATGGCACGTGGGGCT: the “relative binding free energy” value is -0.22 kcal/mol.

Consider TTAATCACGTGGTAGT, for which the “relative binding free energy” value was 0.02 kcal/mol. In the case of GGGTCCACGTGGGCGG, the “relative binding free energy” value was -0.14 kcal/mol. Under TGGGGCACGTGTAACT stands 0.11 kcal/mol. Under GTGGACACGTGGTGGG stands 0.04 kcal/mol; under ATGTACACGTGAATTA, 0.29 kcal/mol. TGATTCACGTGCTATT: the “relative binding free energy” value was determined as 0.21 kcal/mol.

Turning to GTTACCACGTGGGAAG, the “relative binding free energy” value was found to be 0.03 kcal/mol.

Regarding CAAGGCACGTGTGTAA, the “relative binding free energy” value was found to be 0.03 kcal/mol.

Consider GTGGGCACGTGTGAAT, for which the “relative binding free energy” value is 0.17 kcal/mol. With AGAGACACGTGGGGAA the figure was -0.02 kcal/mol. With TTATGCACGTGAGGAA the figure was 0.08 kcal/mol.

Take GGTGGCACGTGGGCTG: the “relative binding free energy” value was -0.17 kcal/mol.

For TGTAACACGTGGATTG, the “relative binding free energy” value is 0.03 kcal/mol. With GGTCACACGTGGTATT the figure was 0.04 kcal/mol; with GTATGCACGTGTAAGG, 0.13 kcal/mol. As for CTTCGCACGTGTGGGA, the “relative binding free energy” value was -0.09 kcal/mol. With TATCACACGTGGTGTA, the “relative binding free energy” value was 0 kcal/mol. With TTTTGCACGTGGATGT the figure was 0.21 kcal/mol; with TTAGTCACGTGTGTGC, 0.08 kcal/mol; with GGACTCACGTGGTCTG, 0.24 kcal/mol. On to TTGTTCACGTGCAGCG, for which the “relative binding free energy” value worked out at 0.21 kcal/mol.

For AAGTTCACGTGCGCTG, the “relative binding free energy” value came out at 0.27 kcal/mol.

Consider TCATGCACGTGAGTTT, for which the “relative binding free energy” value was determined as 0.24 kcal/mol.

As to GGTTACACGTGCAGGG, the “relative binding free energy” value is 0.07 kcal/mol. Under CCCGGCACGTGGTAGG stands -0.08 kcal/mol; under GTGATCACGTGTGTTG, 0.15 kcal/mol. With TAAATCACGTGTTGCT the figure was 0.13 kcal/mol; with CTGTTCACGTGTATGG, 0.16 kcal/mol. With TACGGCACGTGTGGTG the figure was -0.05 kcal/mol; with TTTTACACGTGAGTAT, 0.35 kcal/mol; with CTATTCACGTGTGAGT, 0.18 kcal/mol. On to ATAAACACGTGGGGAT, for which the “relative binding free energy” value is -0.17 kcal/mol. Under CTGGTCACGTGGATTG stands 0.15 kcal/mol; under TTATTCACGTGTGCAA, 0.31 kcal/mol; under TCGCACACGTGGGGGG, -0.11 kcal/mol. Under TTACTCACGTGTCGTT stands 0.27 kcal/mol; under TAGTTCACGTGGCGCA, 0.22 kcal/mol; under GGTCGCACGTGGTTGA, -0.07 kcal/mol. With TGGGACACGTGTAGGG the figure was 0.07 kcal/mol. Regarding CTGGTCACGTGCTTTT, the “relative binding free energy” value was -0.06 kcal/mol. With TGTATCACGTGGCCTT the figure was 0.07 kcal/mol; with GTTGACACGTGATGCG, 0.08 kcal/mol. Take ATGTGCACGTGTTCGA: the “relative binding free energy” value was -0.02 kcal/mol. With TCTGTCACGTGAAAGG, the “relative binding free energy” value is 0.32 kcal/mol. With AGTGCCACGTGTGGCG the figure was -0.07 kcal/mol; with AGTCTCACGTGATAGT, 0.27 kcal/mol; with GCAGGCACGTGGGTAG, -0.29 kcal/mol.

Source of the values: the BET-seq Pho4 binding data (Le et al. 2018).
